Screen size: about 310,000 compounds; about 14,000 (4.5%) showed an effect of 50% or more. The effect is printed as a negative number. The list shows a part of the results.

This note sets out measurements from PMC4336329 (PLoS ONE, 2015).
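Also: peak tail current of the secondary pulse compared with the same well before compound.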

In this test the target is human ether-à-go-go-related gene (hERG) potassium channel (human, UniProt Q12809). Kind of test: primary screen, population patch clamp on CHO cells stably expressing hERG.
human ether-à-go-go-related gene (hERG) potassium channel, sequence (Q12809 whole entry, looked up): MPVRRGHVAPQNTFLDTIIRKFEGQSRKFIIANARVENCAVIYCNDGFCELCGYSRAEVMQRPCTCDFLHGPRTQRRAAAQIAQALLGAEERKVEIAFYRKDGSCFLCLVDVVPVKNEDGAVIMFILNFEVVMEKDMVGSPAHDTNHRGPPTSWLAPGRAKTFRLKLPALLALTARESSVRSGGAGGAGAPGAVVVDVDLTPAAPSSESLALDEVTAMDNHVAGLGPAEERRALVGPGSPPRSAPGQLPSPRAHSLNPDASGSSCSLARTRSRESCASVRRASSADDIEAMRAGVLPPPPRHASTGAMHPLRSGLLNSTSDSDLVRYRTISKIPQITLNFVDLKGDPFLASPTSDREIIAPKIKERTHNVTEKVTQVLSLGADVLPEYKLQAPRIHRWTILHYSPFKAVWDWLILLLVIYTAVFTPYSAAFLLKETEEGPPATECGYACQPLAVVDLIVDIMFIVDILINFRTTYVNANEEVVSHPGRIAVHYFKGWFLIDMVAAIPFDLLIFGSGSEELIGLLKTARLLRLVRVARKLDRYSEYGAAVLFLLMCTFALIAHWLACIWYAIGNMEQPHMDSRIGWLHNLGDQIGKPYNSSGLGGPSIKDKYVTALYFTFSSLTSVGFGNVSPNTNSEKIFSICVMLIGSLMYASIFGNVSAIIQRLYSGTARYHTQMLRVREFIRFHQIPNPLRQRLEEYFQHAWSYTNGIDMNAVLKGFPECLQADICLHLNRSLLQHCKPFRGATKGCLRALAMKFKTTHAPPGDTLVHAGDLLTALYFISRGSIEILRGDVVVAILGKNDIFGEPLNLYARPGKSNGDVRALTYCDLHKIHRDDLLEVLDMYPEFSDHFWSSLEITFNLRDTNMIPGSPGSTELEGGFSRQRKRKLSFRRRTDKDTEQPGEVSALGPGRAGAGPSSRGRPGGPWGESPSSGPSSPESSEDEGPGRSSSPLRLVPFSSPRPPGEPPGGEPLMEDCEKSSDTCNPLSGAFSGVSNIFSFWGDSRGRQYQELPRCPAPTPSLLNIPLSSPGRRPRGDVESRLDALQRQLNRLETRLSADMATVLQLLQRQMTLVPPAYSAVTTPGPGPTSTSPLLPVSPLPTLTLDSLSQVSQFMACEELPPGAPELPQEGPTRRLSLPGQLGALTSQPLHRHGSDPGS
Take `O=C(Nc1cc(C(F)(F)F)ccc1N1CCOCC1)c1cn2ccccc2n1`: the “hERG current change (%, negative = inhibition) at 10uM” value is recorded as -2.98%.
Consider `O=C(NC1CCCCCCC1)c1ccc(S(=O)(=O)N2CCCC2)cc1`, for which the “hERG current change (%, negative = inhibition) at 10uM” value is reported as -2.4%.
With `CC(NC(=O)COC(=O)/C=C/c1ccco1)c1ccccc1` (centres unmarked), the “hERG current change (%, negative = inhibition) at 10uM” value was 4.48%.
For the molecule `Cc1cc(CNC(=O)COc2ccc(F)cc2)c2ccccc2n1`, the “hERG current change (%, negative = inhibition) at 10uM” value is listed as -13%.
For `O=C(/C=C/c1ccc(Br)cc1)c1ccco1`, the “hERG current change (%, negative = inhibition) at 10uM” value is recorded as 11.8%.
Regarding `CC1CCCN(CC(=O)Nc2ccc(S(=O)(=O)N3CCCCC3)cc2)C1` (centres unmarked), the “hERG current change (%, negative = inhibition) at 10uM” value is -15.7%.
In the case of `CCC(=O)Nc1ccc(NC(=O)c2oc3ccccc3c2C)cc1`, the “hERG current change (%, negative = inhibition) at 10uM” value amounted to 6.1%.
Turning to `COc1ccccc1NC(=S)NC1CCCC1`, the “hERG current change (%, negative = inhibition) at 10uM” value is given as -8.43%.
For the molecule `CC1(C)CC(NC(=O)COc2ccc3ccccc3c2)CC(C)(C)N1`, the “hERG current change (%, negative = inhibition) at 10uM” value is -12.6%.
Regarding `CC(C)(C)NC(=S)NNC(=O)c1ccc2ncccc2c1`, the “hERG current change (%, negative = inhibition) at 10uM” value is 9.77%.
Take `COCCNC(=S)N/N=C(\C)c1ccc2cc(OC)ccc2c1`: the “hERG current change (%, negative = inhibition) at 10uM” value worked out at 32.1%.
As to `CCOC(=O)C1CCCN(C(=O)c2ccccc2Oc2ccccc2)C1` (centres unmarked), the “hERG current change (%, negative = inhibition) at 10uM” value is on record as -29.5%.
For `Cc1cc(C(=O)N2CCOCC2)c(C)o1`, the “hERG current change (%, negative = inhibition) at 10uM” value came to 7.73%.
On to `Cc1ccc2nc(-c3ccccc3)cc(C(=O)N3CC(C)OC(C)C3)c2c1` (centres unmarked), for which the “hERG current change (%, negative = inhibition) at 10uM” value is listed as -5.94%.
With `CC(=O)c1ccc(OC(=O)CCN2c3ccccc3Sc3ccccc32)cc1`, the “hERG current change (%, negative = inhibition) at 10uM” value is recorded as 24.2%.
In the case of `C[C@@H]1C(=O)O[C@H]2[C@H](O)[C@@]34[C@H]5C[C@@H](C(C)(C)C)[C@]36[C@@H](OC(=O)[C@@H]6O)O[C@@]4(C(=O)O5)[C@@]12O` it was 21.2%; in that of `COc1ccc(CN2CCNC(=O)C2CC(=O)NCCC2=CCCCC2)c(F)c1` (centres unmarked), -32.9%; in that of `CCOC(CNC(=O)CN1C(=O)COc2ccc(S(=O)(=O)N3CCOCC3)cc21)OCC`, 18.7%.
Regarding `COc1cccc(NC(=O)NC2CCCc3ccccc32)c1` (centres unmarked), the “hERG current change (%, negative = inhibition) at 10uM” value stood at 12.1%.
As to `Cc1[nH]c2ccccc2c1C(=O)C(=O)NCc1ccncc1`, the “hERG current change (%, negative = inhibition) at 10uM” value stood at 5.61%.
For `CC(SCc1ccccc1)C(=O)Nc1ccccc1-c1ccccc1` (centres unmarked), the “hERG current change (%, negative = inhibition) at 10uM” value is recorded as -4.91%.
As for `COc1ccc(-c2noc(N3CCC(C(=O)Nc4ccc(F)cc4F)CC3)n2)cc1`, the “hERG current change (%, negative = inhibition) at 10uM” value is -5.26%.
As to `CN(C)c1nc(N(C)C)nc(N2CC(=O)N(c3ccccc3)C2=N)n1`, the “hERG current change (%, negative = inhibition) at 10uM” value turned out to be 10.3%.
The figure for `O=C(CC(=O)NC1CCCCC1)N/N=C/c1ccc(Cl)cc1` is -0.0137%; for `O=C(NC1CCCCC1)c1ccc(CS(=O)Cc2ccccc2Cl)o1` (centres unmarked) it is -9.4%.
In the case of `CN(C(=O)COC(=O)CNC(=O)CNC(=O)c1ccc(Cl)cc1Cl)c1ccccc1` it was -20%.
In the case of `CCN(CC)S(=O)(=O)c1ccc2c(c1)N(CC(=O)NCC1CCCO1)C(=O)CO2` (centres unmarked), the “hERG current change (%, negative = inhibition) at 10uM” value is listed as 14.4%.
Regarding `COc1ccc(S(=O)(=O)N2CCN(C)CC2)cc1NC(=O)c1ccccc1F`, the “hERG current change (%, negative = inhibition) at 10uM” value is reported as -14.3%.
For the molecule `O=C(O)c1nn(Cc2ncc(-c3cccc(Cl)c3)o2)c(=O)c2ccccc12`, the “hERG current change (%, negative = inhibition) at 10uM” value is given as -1.95%.
In the case of `Cc1cc(NC(=O)C2CCCN2C(=O)Nc2cccc(Cl)c2)ccc1-n1cnnn1` (centres unmarked) it was -48.3%; in that of `COc1ccc(-n2ncc3c(=O)n(CC(=O)Nc4ccc5c(c4)OCCO5)cnc32)cc1`, 25.2%.
As to `Cc1cc(C)c(C(=O)Nc2ccccc2)c(CC(C)(C)C(=O)O)c1`, the “hERG current change (%, negative = inhibition) at 10uM” value was found to be 18%.
In the case of `O=C(C1CCN(S(=O)(=O)N2CCOCC2)CC1)N1CCN(c2ccccc2F)CC1` it was 14.5%; in that of `O=C(Nc1ccccc1C(=O)NC(Cc1ccc(O)cc1)C(=O)O)c1ccccc1` (centres unmarked), 12.2%; in that of `Cc1ccc(N=C2N=C(N)c3ccccc32)c(C)c1`, -2.47%.
On to `Cc1cc(F)ccc1NC(=O)c1cccnc1`, for which the “hERG current change (%, negative = inhibition) at 10uM” value came to 4.45%.
As to `CC(=O)NC(Cc1ccc(F)cc1)C(=O)NC1CCN(S(=O)(=O)c2ccccc2)CC1` (centres unmarked), the “hERG current change (%, negative = inhibition) at 10uM” value is -7.09%.
Regarding `Cn1c(=O)c2c(nc(Br)n2Cc2ccc3ccccc3c2)n(C)c1=O`, the “hERG current change (%, negative = inhibition) at 10uM” value is listed as 2.56%.
On to `Cc1ccc(S(=O)(=O)c2c(N)n(Cc3ccco3)c3nc4ccccc4nc23)cc1`, for which the “hERG current change (%, negative = inhibition) at 10uM” value was determined as 10.4%.
In the case of `Cc1ccc(S(=O)(=O)NCC(=O)N/N=C/c2ccc(Cl)cc2Cl)cc1` it was -12.9%; in that of `CCOC(=O)c1cnc2ccc(OCC)cc2c1NCc1ccccc1`, -40.3%.
On to `COc1ccc2nc(NC3=NC(c4ccccc4)CC(=O)N3)nc(C)c2c1` (centres unmarked), for which the “hERG current change (%, negative = inhibition) at 10uM” value is on record as -15.1%.
In the case of `COc1cccc(NC(=S)N(Cc2ccco2)C(C)c2ccco2)c1` (centres unmarked), the “hERG current change (%, negative = inhibition) at 10uM” value is -19.2%.
In the case of `COc1ccc(NC(=O)COC(=O)c2cc(C)oc2C)c([N+](=O)[O-])c1` it was 7.49%; in that of `N#Cc1cccc(NC(=O)CCNS(=O)(=O)c2ccc3[nH]c(=O)oc3c2)c1`, 17.9%.
The figure for `CC1CCCCC1NC(=O)CCS(=O)(=O)c1cccc2nonc12` (centres unmarked) is 5.27%; for `COc1ccc(OC)c(C(=O)c2ccc(C(=O)c3cc(OC)ccc3OC)cc2)c1` it is -4.65%.
With `COc1cc(CNS(=O)(=O)c2ccc3c(c2)CC(C)N3C(=O)C2CCC2)cc(OC)c1OC` (centres unmarked), the “hERG current change (%, negative = inhibition) at 10uM” value was -10.2%.
As for `CN(C)CCCOC(=O)COc1ccc(Br)cc1.Cl`, the “hERG current change (%, negative = inhibition) at 10uM” value is reported as -5.78%.
The figure for `Cn1nnnc1NCc1cccc(Cl)c1` is 6.57%; for `CCOC(=O)c1ccc(NC(=O)Nc2c(C)nn(C)c2C)cc1` it is -3.78%.
As for `CC(C)Oc1ccc(S(=O)(=O)N2CCCCC2)cc1NC(=O)C1CCC1`, the “hERG current change (%, negative = inhibition) at 10uM” value is -30.4%.
`COc1cccc(-c2nn(-c3ccccc3)cc2C(=O)O)c1`: the “hERG current change (%, negative = inhibition) at 10uM” value is listed as 1.11%.
For `COc1cc(OC)cc(C(=O)NCC(=O)OC2CCOC2=O)c1` (centres unmarked), the “hERG current change (%, negative = inhibition) at 10uM” value is given as 10.4%.
For the molecule `CC(=O)Nc1ccc(C(=O)N2CCCC2)cc1`, the “hERG current change (%, negative = inhibition) at 10uM” value is 5.29%.
As to `Cc1cccc(C)c1NC(=O)C1CCCN1C(=O)NCc1ccccc1` (centres unmarked), the “hERG current change (%, negative = inhibition) at 10uM” value worked out at 17.3%.
